The source of these data is PubChem BioAssay AID1645882 (National Center for Advancing Translational Sciences (NCATS), 2021).

Structures are written as SMILES. Several values for one entry are separate records, joined by “and”; a condition that tells them apart may be missing. Equal values may be shown once. The campaign covered roughly 16,000 compounds. About 120 (0.75%) were called active. Another 4% or so got no clear call; they are omitted. The call rests on the fitted dose curve; in most records, active means well fitted inhibition curve with a large enough effect; inconclusive means small, poorly fitted or top-dose-only effect; inactive means no such curve, though single readings can be large or run the other way. The list shows a part of the results. The source holds several records for some structures; these can differ, active in one and inactive in another.
Potency means the concentration at half of the fitted maximal effect.

The target in this test is Rap guanine nucleotide exchange factor 3 (Homo sapiens) (UniProt O95398). The test is described as follows: Validation qHTS for antagonist of cAMP-regulated guanine nucleotide exchange factor 3 (EPAC1). Further: nearly all actives have a fitted effect of over 75% in size.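 On activity change, negative = inhibition: plate controls were DMSO for no effect and ATA control for full effect.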 Conditions: EPAC1 Rap1B-BODIPY-GDP exchange, fluorescence; series mostly up to 150 µM; activity change, negative = inhibition: at the top concentration. In outline: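 EPAC1 (100 nM) mixed with 250 nM RAP1B-BODIPY-GDP and 50 uM GDP; compounds in concentration series, 5 min at room temperature. Fluorescence (ex 480/em 540 nm) read every 5 min for 30 min; normalized to ATA control and DMSO.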
Chain of UniProt O95398 (O95398 whole entry, looked up): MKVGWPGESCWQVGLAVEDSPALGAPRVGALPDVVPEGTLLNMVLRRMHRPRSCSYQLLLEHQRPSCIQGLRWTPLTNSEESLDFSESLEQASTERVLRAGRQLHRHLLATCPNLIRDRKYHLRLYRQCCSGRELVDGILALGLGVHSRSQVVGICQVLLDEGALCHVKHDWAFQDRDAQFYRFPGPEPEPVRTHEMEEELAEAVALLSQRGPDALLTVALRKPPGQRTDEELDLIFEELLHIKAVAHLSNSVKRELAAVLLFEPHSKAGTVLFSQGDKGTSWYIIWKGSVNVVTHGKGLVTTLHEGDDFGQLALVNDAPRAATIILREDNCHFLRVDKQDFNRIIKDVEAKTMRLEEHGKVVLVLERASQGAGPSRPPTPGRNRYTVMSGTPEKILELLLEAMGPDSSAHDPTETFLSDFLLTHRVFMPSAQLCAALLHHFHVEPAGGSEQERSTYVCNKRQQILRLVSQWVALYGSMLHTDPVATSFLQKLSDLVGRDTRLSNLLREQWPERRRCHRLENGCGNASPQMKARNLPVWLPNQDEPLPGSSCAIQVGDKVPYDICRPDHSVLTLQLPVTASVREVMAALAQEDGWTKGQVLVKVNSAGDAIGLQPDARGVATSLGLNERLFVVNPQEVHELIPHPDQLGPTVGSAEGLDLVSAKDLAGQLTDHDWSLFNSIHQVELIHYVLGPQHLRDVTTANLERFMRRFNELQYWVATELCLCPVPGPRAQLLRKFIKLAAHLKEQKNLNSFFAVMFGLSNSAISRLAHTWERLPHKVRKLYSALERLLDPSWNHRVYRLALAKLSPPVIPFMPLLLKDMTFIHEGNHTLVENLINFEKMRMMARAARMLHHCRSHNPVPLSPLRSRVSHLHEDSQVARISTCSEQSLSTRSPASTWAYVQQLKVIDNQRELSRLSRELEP
As for `COc1ccc(Oc2ncc3nc(-c4cc(F)cc(F)c4)c(=O)n(C)c3n2)cc1`, the “activity change, negative = inhibition” value is inactive: 14.5%.
On the same count and under the same terms, as for `COc1ccc(-c2coc3cc(OC(C)=O)cc(OC(C)=O)c3c2=O)cc1`, the figure is inactive: 2.18%; as for `NC(=O)NCCC[C@H](N)C(=O)O`, inactive: -1.86%.
Still for that read-out and setting: under `CC(C)C[C@H]1C(=O)N2CCC[C@@H]2[C@]2(O)O[C@](NC(=O)[C@@H]3C=C4c5cccc6[nH]c(Br)c(c56)C[C@H]4N(C)C3)(C(C)C)C(=O)N12` stands inactive: 6.89%.
Take `O=c1oc2c(O)c(O)cc3c(=O)oc4c(O)c(O)cc1c4c23`: the Potency result is “inactive and active: 25.1 µM”.
Turning to `O=C1CC2(CCCC2)CC(=O)N1CCCCNC[C@H]1COc2ccccc2O1`, the “activity change, negative = inhibition” value is inactive: 5.46%.
On to `c1ccc(-c2ccc(N3CCCC4(CCNCC4)C3)cc2)cc1`, for which the “activity change, negative = inhibition” value was inactive: 12.4%.
Turning to `COC(=O)c1ccccc1NS(C)(=O)=O`, the “activity change, negative = inhibition” value was inactive: 21%.
The same measure, in the same setting: as for `NC(N)=NC(=O)c1nc(Cl)c(N)nc1N`, the entry is “inactive”; as for `Cc1noc(C)c1C(=O)N1CCC2(CC1)CN(c1cccc(-c3ccccc3)c1)C2`, inactive: 3.65%; as for `Cc1noc(C)c1-c1ccc2ncnc(N3CCOCC3)c2c1`, inactive: 17.9%.
Same read-out and setting: under `O=c1c(-c2ccc(F)cc2)nc2cncnc2n1C1CC1` stands inactive: 13.4%; under `CN(C)c1ncc2nc(-c3cccs3)c(=O)n(CCC#N)c2n1`, inactive: 20.7%; under `COc1ccc(CN2CC[C@H]3C=CC[C@@H](C(=O)N4CCOCC4)[C@H]3C2=O)cc1OC`, inactive: 10%.
Regarding `CO[C@@H]1[C@@H](O[C@@H]2O[C@H](C)[C@@H](O[C@H]3C[C@@](C)(O)[C@@H](OC(=O)CC(C)C)[C@H](C)O3)[C@H](N(C)C)[C@H]2O)[C@@H](CC=O)C[C@@H](C)C(=O)/C=C/C2OC2C[C@@H](C)OC(=O)C[C@H]1OC(C)=O` (some centres undefined), the “activity change, negative = inhibition” value is inactive: 4.21%.
As for `COc1ccc(Oc2ncc3nc(C)c(=O)n(C4CC4)c3n2)cc1`, the “activity change, negative = inhibition” value was inactive: 10.7%.
With `N#Cc1cccc(-c2nc3cnc(N4CCOCC4)nc3n(C[C@H]3CCCO3)c2=O)c1`, the “activity change, negative = inhibition” value is inactive: 14.3%.
In the case of `CCOC(=O)c1ccccc1O`, the activity change, negative = inhibition entry was “inactive”.
On the same count and under the same terms, under `COCC(C)NCc1cc2ccc(OC)cc2nc1N1CCN(c2ccc(F)cc2)CC1` (centres undefined) stands inactive: 11.7%; under `CN1C(=O)CC[C@H]1c1cccnc1`, “inactive”; under `CC(C)N1CCN(c2ccc(OC[C@H]3CO[C@](Cn4cncn4)(c4ccc(Cl)cc4Cl)O3)cc2)CC1`, inactive: 17% [at 75.8 µM].
Same read-out and setting: as for `COC(=O)C[C@H]1c2ccccc2S(=O)(=O)N1c1ccc(N(C)C)cc1`, the figure is inactive: -2.08%; as for `CC[C@@]1(O)C[C@H](O[C@H]2C[C@H](N(C)C)[C@H](O[C@H]3C[C@H](O)[C@H](O[C@H]4CCC(=O)[C@H](C)O4)[C@H](C)O3)[C@H](C)O2)c2c(cc3c(c2O)C(=O)c2c(O)cccc2C3=O)[C@H]1C(=O)OC`, inactive: 2.46%.
The same measure, in the same setting: as for `Cc1ccc(O)c(C(CCN(C(C)C)C(C)C)c2ccccc2)c1` (centres undefined), the figure is inactive: 16%.
Take `COc1ccc(C(=O)C2C3C4COC(O4)C(=O)C3C3C=Cc4ccccc4N32)c(OC)c1` (centres undefined): the “activity change, negative = inhibition” value is inactive: -8.96%.
On to `Cc1nc2cnc(N3CCNCC3)nc2n(CCC#N)c1=O`, for which the “activity change, negative = inhibition” value is inactive: 21.3%.
Still for that read-out and setting: as for `CCC(C)(Oc1ccc(C2(c3ccc(OC(C)(CC)C(=O)O)cc3)CCCCC2)cc1)C(=O)O` (centres undefined), the figure is inactive: 15.4%.
Same read-out and setting: as for `COc1ccccc1CNc1ncncc1-c1ccccc1C(F)(F)F`, the figure is inactive: -7.14%; as for `OCC1NCC(O)C(O)C1O` (centres undefined), inactive: 1.69% [at 75.8 µM].
Still for that read-out and setting: as for `CCn1c(-c2ccccc2F)nc2cc(NC(C)=O)cc(C(=O)N(C)Cc3ccc4nccnc4c3)c21`, the figure is inactive: -3.33%.
With `COC(=O)c1c(OCc2ccc(F)cc2)cc(=O)n2c1CCN(Cc1ccc3cccnc3c1)CC2`, the “activity change, negative = inhibition” value was inactive: 9.15%.
Consider `CN(C)C(=O)c1ccc(-c2nccc(Nc3ccc(F)cc3)n2)cc1`, for which the “activity change, negative = inhibition” value was inactive: 3.19%.
On to `O=C(NNCS(=O)(=O)O)c1ccncc1`, for which the “activity change, negative = inhibition” value was inactive: 458%.
Still for that read-out and setting: as for `CCn1c(=O)[nH]c2cc(Cl)c(Cl)cc21`, the entry is “inactive”; as for `C[C@@H]1CN(Cc2ccc3c(c2)CN(Cc2cccn2-c2ccccn2)CCO3)C[C@H](C)O1`, inactive: 18.6%.
Same read-out and setting: under `Nc1ncnc2c1ncn2[C@H]1O[C@H](CO)[C@@H](O)[C@@H]1O` stands inactive: 6.48%; under `CC(C)[C@@H]1CC[C@@H](C)C[C@H]1OC(=O)c1ccccc1O`, inactive: 10.8%; under `COCc1c(C(=O)N2CCN(C3CCCCC3)CC2)cnn1-c1ncc(C)c(-c2cccs2)n1`, inactive: 10.3%.
Consider `O=C(c1ccncc1)N1CCC2(CC1)CN(C(c1ccccc1)c1ccccc1)C2`, for which the “activity change, negative = inhibition” value was inactive: 16.1%.
The same measure, in the same setting: as for `COc1ccc(Cl)cc1N=Nc1ncc[nH]1`, the entry is “inactive”; as for `Cc1c(-c2ccc(O)cc2)nn(-c2ccc(O)cc2)c1-c1ccc(OCCN2CCCCC2)cc1`, inactive: -26.4%.
Regarding `CCCCCCCCCC(=O)N[C@H](CN1CCOCC1)[C@H](O)c1ccccc1`, the activity change, negative = inhibition was inactive: 8.09% [at 15.3 µM].
The same measure, in the same setting: under `CN1[C@@H]2CC[C@H]1CC(OC(=O)C(O)c1ccccc1)C2` (some centres undefined) stands “inactive”; under `CC/C=C\C/C=C\C/C=C\CCCCCCCCCCCC(=O)O`, inactive: 7.32% [at 15.3 µM].
`O=C(c1ccncc1)N1CCC2(CCN(Cc3ccncc3)CC2)CC1`: the “activity change, negative = inhibition” value was inactive: 8.44%.
On the same count and under the same terms, as for `CO/N=C(\C(=O)N[C@@H]1C(=O)N2C(C(=O)[O-])=C(C[n+]3cccc4c3CCC4)CS[C@H]12)c1csc(N)n1`, the figure is inactive: -26.8%; as for `CCCCCCCC/C=C\CCCCCCCC(N)=O`, “inactive”; as for `COc1ccccc1N1CCN(CCCCNC(=O)c2ccc(-c3ccc(C(C)=O)cc3)cc2)CC1`, “inactive”.
Same read-out and setting: as for `CC(O)(COc1ccccc1)c1ccc2c(c1)CN(Cc1cccc3cccnc13)CCO2` (centres undefined), the figure is inactive: -7.35%.
